# From the supplement of paper PMC10320760
# The data scatter; read single values as rough.
# B1: Ydj1; a variant is named by its letters at X, in order (parent)
# chain: MVKETKFYDILGVPVTATDVEIKKAYRKCALKYHPDKNPSEEAAEKFKEASAAYEILSDPEKRDIYDQFGEDGLSGAGGAGGFPGGGFGFGDDIFSQFFGAGGAQRPRGPQRGKDIKHEISASLEELYKGRTAKLALNKQILCKECEGRGGKKGAVKKCTSCNGQGIKFVTRQMGPMIQRFQTECDVCHGTGDIIDPKDRCKSCNGKKVENERKILEVHVEPGMKDGQRIVFKGEADQAPDVIPGDVVFIVSERPHKSFKRDGDDLVYEAEIDLLTAIAGGEFALEHVSGDWLKVGIVPGEVIAPGMRKVIEGKGMPIPKYGGYGNLIIKFTIKFPENHFTSEENLKKLEEILPPRIVPAIPKKATVDECVLADFDPAKYNRTRASRGGANYDSDEEEQGGEGVQCXXX
# Variants of: B1
# Assay: enrichment factor, frequency at 37 °C / frequency at 25 °C (thermotolerance selection) (ratio); higher = more growth at 37 °C, higher likelihood of farnesylation
# Conditions: with Saccharomyces cerevisiae ydj1Δ (yWS304); selective temperature 37 °C; reference temperature 25 °C
# Description: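 Pooled library of all 8,000 Ydj1-CXXX C-terminal motif variants (native CASQ replaced by C + three variable residues, one codon per amino acid) expressed from a CEN plasmid in S. cerevisiae ydj1Δ (yWS304). The library was grown in SC-Ura liquid to A600 ~2 (~8 generations) at permissive 25 °C or selective 37 °C. Reads from 8 and 7 replicates were pooled and variants counted by NGS. Enrichment factor = frequency at 37 °C / frequency at 25 °C, with a +1 correction; it reports Ydj1-dependent thermotolerance, used as a read-out of farnesylation by yeast FTase.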
row,Variant,enrichment factor
1,LAC,0.635
2,LAE,0.908
3,LAG,1.29
4,LAR,0.13
5,LAD,1.17
6,LAF,2.38
7,LAL,1.42
8,LAS,2.12
9,LAH,1.47
10,LAN,1.51
11,LAQ,1.47
12,LAM,1.73
13,LAI,2.59
14,LAP,0.18
15,LAT,1.91
16,LAK,0.261
17,LAA,1.59
18,YAP,0.593
19,YAA,4.5
20,YAR,0.109
21,YAK,0.097
22,YAC,4.96
23,YAD,0.372
24,YAM,1.8

row,Variant,enrichment factor
1,YAL,2.14
2,YAS,3.76
3,YAN,2.08
4,YAF,1.35
5,YAI,2.73
6,YAG,1.75
7,YAE,0.197
8,YAH,1.72
9,YAQ,4.63
10,EAN,1.25
11,EAH,1.11
12,EAG,0.879
13,EAD,0.206
14,EAL,1.51
15,EAR,0.13
16,EAQ,1.7
17,EAI,1.56
18,EAF,1.45
19,EAT,1.61
20,EAK,0.166
21,EAE,0.174
22,EAS,1.84
23,EAP,0.1
24,EAA,1.38

row,Variant,enrichment factor
1,EAM,1.33
2,EAC,2.29
3,WAI,0.948
4,WAK,0.126
5,WAQ,1.81
6,WAS,2.09
7,WAP,1.06
8,WAR,0.341
9,WAA,1.51
10,WAD,1.46
11,WAG,1.03
12,WAC,0.756
13,WAL,1.57
14,WAM,1.9
15,WAH,1.96
16,WAN,1.54
17,WAE,2.03
18,WAF,1.45
19,VAQ,2.33
20,VAA,1.44
21,VAM,0.977
22,VAR,0.141
23,VAH,1.89
24,VAL,1.13

row,Variant,enrichment factor
1,VAI,2.19
2,VAC,0.786
3,VAD,1.49
4,VAP,0.121
5,VAE,1.51
6,VAK,0.518
7,VAN,2.84
8,VAG,1.22
9,VAF,2.51
10,VAS,1.01
11,AAT,1.36
12,AAD,0.972
13,AAL,1.77
14,AAM,1.75
15,AAN,1.76
16,AAR,0.117
17,AAF,2.81
18,AAE,1.26
19,AAG,1.56
20,AAC,0.906
21,AAS,1.43
22,AAP,0.0839
23,AAQ,1.53
24,AAA,1.72

row,Variant,enrichment factor
1,AAI,1.12
2,AAH,1.81
3,AAK,0.315
4,GAQ,1.31
5,GAA,1.7
6,GAK,0.151
7,GAI,1.26
8,GAG,0.44
9,GAD,0.161
10,GAC,1.14
11,GAS,1.62
12,GAH,0.458
13,GAL,1.25
14,GAM,1.5
15,GAN,0.979
16,GAE,0.211
17,GAT,1.57
18,GAP,0.0834
19,GAR,0.112
20,GAF,0.97
21,SAA,1.12
22,SAQ,1.4
23,SAN,1.83
24,SAM,1.63

row,Variant,enrichment factor
1,SAL,1.71
2,SAR,0.095
3,SAF,1.5
4,SAC,0.676
5,SAK,0.186
6,SAI,1.74
7,SAH,2.2
8,SAG,1.77
9,SAD,0.538
10,SAE,0.255
11,SAP,0.172
12,SAS,1.88
13,TAG,1.52
14,TAL,1.39
15,TAM,1.17
16,TAD,1.2
17,TAK,0.103
18,TAQ,2.06
19,TAR,0.154
20,TAN,2.05
21,TAP,0.166
22,TAC,1.39
23,TAA,1.7
24,TAS,1.86

row,Variant,enrichment factor
1,TAH,1.61
2,TAI,2.38
3,TAE,0.725
4,TAF,2.32
5,FAT,1.9
6,FAS,1.83
7,FAK,0.103
8,FAR,0.19
9,FAL,2.56
10,FAM,3.19
11,FAH,1.62
12,FAD,0.495
13,FAA,1.98
14,FAE,0.395
15,FAC,1.28
16,FAG,1.61
17,FAP,1.14
18,FAQ,2.12
19,FAF,2.03
20,FAI,2.63
21,FAN,1.71
22,DAQ,1.58
23,DAP,0.193
24,DAG,0.158

row,Variant,enrichment factor
1,DAK,0.191
2,DAR,0.219
3,DAE,0.137
4,DAD,0.188
5,DAH,0.323
6,DAL,0.405
7,DAA,0.512
8,DAC,1.25
9,DAM,1.83
10,DAF,1.44
11,DAN,0.255
12,DAS,1.53
13,DAI,0.608
14,IAQ,1.42
15,IAD,1.03
16,IAS,1.76
17,IAR,0.211
18,IAH,1.68
19,IAG,1.59
20,IAN,1.42
21,IAT,2.61
22,IAC,1.75
23,IAE,1.12
24,IAI,3.86

row,Variant,enrichment factor
1,IAK,0.354
2,IAL,1.59
3,IAF,2.09
4,IAP,0.174
5,IAM,2.42
6,IAA,1.63
7,CAA,2.56
8,CAK,0.238
9,CAH,1.35
10,CAQ,1.98
11,CAR,0.137
12,CAF,0.979
13,CAD,1.28
14,CAM,0.683
15,CAI,0.667
16,CAL,1.35
17,CAS,0.946
18,CAT,1.11
19,CAP,0.407
20,CAE,1.37
21,CAC,1.09
22,CAG,1.17
23,CAN,1.47
24,NAG,1.46

row,Variant,enrichment factor
1,NAI,1.78
2,NAS,1.98
3,NAD,0.344
4,NAK,0.157
5,NAT,1.79
6,NAC,1.17
7,NAF,1.24
8,NAP,0.198
9,NAH,1.75
10,NAA,1.7
11,NAQ,1.46
12,NAR,0.121
13,NAN,1.37
14,NAL,1.09
15,NAM,1.3
16,NAE,0.207
17,MAQ,1.53
18,MAC,0.791
19,MAN,1.97
20,MAG,1.33
21,MAR,0.188
22,MAP,0.102
23,MAT,1.46
24,MAL,1.82

row,Variant,enrichment factor
1,MAF,3.09
2,MAD,0.393
3,MAM,1.61
4,MAH,1.8
5,MAE,0.398
6,MAS,1.85
7,MAI,2.37
8,MAA,1.35
9,MAK,0.131
10,QAE,0.331
11,QAR,0.12
12,QAI,2.69
13,QAA,1.98
14,QAQ,1.86
15,QAS,1.78
16,QAF,2.67
17,QAN,1.76
18,QAL,1.74
19,QAC,1.99
20,QAP,0.2
21,QAT,1.65
22,QAD,0.414
23,QAM,1.98
24,QAK,0.192

row,Variant,enrichment factor
1,QAG,1.42
2,QAH,2.03
3,PAE,0.41
4,PAI,1.82
5,PAS,1.46
6,PAA,1.55
7,PAR,0.154
8,PAT,1.64
9,PAP,0.215
10,PAL,1.59
11,PAD,0.459
12,PAQ,1.16
13,PAK,0.263
14,PAG,1.59
15,PAN,1.29
16,PAM,1.03
17,PAF,0.878
18,PAH,1.42
19,PAC,1.26
20,RAF,0.993
21,RAE,1.07
22,RAR,0.185
23,RAG,0.937
24,RAT,1.36

row,Variant,enrichment factor
1,RAS,1.46
2,RAK,0.101
3,RAL,1.15
4,RAM,1.36
5,RAI,1.2
6,RAD,1.32
7,RAH,1.21
8,RAA,1.29
9,RAQ,1.25
10,RAP,0.0673
11,RAC,0.512
12,RAN,1.37
13,HAC,2.7
14,HAS,1.87
15,HAT,2.4
16,HAD,0.613
17,HAH,2.05
18,HAR,0.169
19,HAG,1.65
20,HAI,1.78
21,HAQ,2.1
22,HAL,0.927
23,HAN,1.76
24,HAP,0.501

row,Variant,enrichment factor
1,HAE,0.384
2,HAF,1.8
3,HAA,1.77
4,HAK,0.238
5,HAM,2.22
6,KAQ,1.62
7,KAA,1.43
8,KAR,0.186
9,KAE,0.502
10,KAT,1.26
11,KAN,1.35
12,KAH,1.62
13,KAS,1.64
14,KAG,1.39
15,KAF,2.36
16,KAK,0.166
17,KAP,0.17
18,KAD,1.54
19,KAC,0.586
20,KAM,2.03
21,KAL,0.874
22,KAI,1.23
